Measured values published in PMC12820563, “FoxP3 forms a head-to-head dimer in vivo and stabilizes its multimerization on adjacent microsatellites”.
This is one part of the list.

The sequences below were run against T1, MBP-FoxP1dN (Mus musculus, UniProt P58462 326-579) (assay: PD-seq (MBP pull-down with sequencing); 20 mM Tris-HCl pH 7.5, 100 mM NaCl, 1.5 mM MgCl2, 0.4 uM protein, 0.1 uM dsDNA library, 30 min, room temperature, amylose pull-down; high values mean tight binding). Details: protein: recombinant; tags: His6-MBP; chain copies: 2; dsDNA, one strand shown.
T1 sequence: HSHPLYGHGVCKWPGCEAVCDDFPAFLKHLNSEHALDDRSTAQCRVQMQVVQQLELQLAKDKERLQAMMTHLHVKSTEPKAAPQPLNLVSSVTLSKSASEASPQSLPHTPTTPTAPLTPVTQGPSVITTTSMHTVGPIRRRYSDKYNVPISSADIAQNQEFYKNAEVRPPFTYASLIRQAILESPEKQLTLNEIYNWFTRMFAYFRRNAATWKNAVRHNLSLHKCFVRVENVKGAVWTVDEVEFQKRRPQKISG
Method in brief: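 Binding is reads-per-million enrichment of pull-down over input, with replicates pooled. It comes from 30 min room-temperature incubation in Tris pH 7.5 buffer with NaCl and MgCl2 of 0.4 µM His6-MBP-tagged, N-terminally truncated mouse FoxP3 or FoxP1 fragment from E. coli with 0.1 µM Klenow-filled degenerate double-stranded DNA library, followed by amylose resin capture, three washes and Illumina sequencing of the released DNA.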
For “GATGATTGTTCTCCCAGCTGATGAATTGTTCACGTCGAGTAAACAAATTTTCCTAATCTTTCTGTTCAAGCGCCATCTAC”, the binding signal was 1.04 RPM ratio (pull-down/input).
With “GATGATTGTTCTCCCAGCTGATGAATTTGTAAGGTCGAGTAAACAAATTTTCCTAATCTTTCTGTTCAAGCGCCATCTAC” the binding signal was 0.984 RPM ratio (pull-down/input).
In the case of “GATGATTGTTCTCCCAGCTGATGAATTCAGCGTCTCGAGTAAACAAATTTTCCTAATCTTTCTGTTCAAGCGCCATCTAC”, the binding signal is reported as 0.903 RPM ratio (pull-down/input).
In the case of “GATGATTGTTCTCCCAGCTGATGAATTGGGCTTGTCGAGTAAACAAATTTTCCTAATCTTTCTGTTCAAGCGCCATCTAC”, the binding signal is reported as 0.904 RPM ratio (pull-down/input).
For “GATGATTGTTCTCCCAGCTGATGAATTGCGTGGCTCGAGTAAACAAATTTTCCTAATCTTTCTGTTCAAGCGCCATCTAC”, the binding signal was 0.979 RPM ratio (pull-down/input).
For “GATGATTGTTCTCCCAGCTGATGAATTAGGGCAGTCGAGTAAACAAATTTTCCTAATCTTTCTGTTCAAGCGCCATCTAC”, the binding signal was 0.877 RPM ratio (pull-down/input).
For “GATGATTGTTCTCCCAGCTGATGAATTAGACCCTTCGAGTAAACAAATTTTCCTAATCTTTCTGTTCAAGCGCCATCTAC”, the binding signal was 0.955 RPM ratio (pull-down/input).
For “GATGATTGTTCTCCCAGCTGATGAATTCGCCTCCTCGAGTAAACAAATTTTCCTAATCTTTCTGTTCAAGCGCCATCTAC”, the binding signal was 0.799 RPM ratio (pull-down/input).
“GATGATTGTTCTCCCAGCTGATGAATTAAAACATTCGAGTAAACAAATTTTCCTAATCTTTCTGTTCAAGCGCCATCTAC” was tested, and the binding signal was 1.4 RPM ratio (pull-down/input).
“GATGATTGTTCTCCCAGCTGATGAATTGCGATCTTCGAGTAAACAAATTTTCCTAATCTTTCTGTTCAAGCGCCATCTAC” was tested, and the binding signal was 1.07 RPM ratio (pull-down/input).
For “GATGATTGTTCTCCCAGCTGATGAATTCTGAATTTCGAGTAAACAAATTTTCCTAATCTTTCTGTTCAAGCGCCATCTAC”, the binding signal was 0.85 RPM ratio (pull-down/input).
With “GATGATTGTTCTCCCAGCTGATGAATTCTAATTTTCGAGTAAACAAATTTTCCTAATCTTTCTGTTCAAGCGCCATCTAC” the binding signal was 0.997 RPM ratio (pull-down/input).
“GATGATTGTTCTCCCAGCTGATGAATTACAGCCATCGAGTAAACAAATTTTCCTAATCTTTCTGTTCAAGCGCCATCTAC” was tested, and the binding signal was 1.09 RPM ratio (pull-down/input).
With “GATGATTGTTCTCCCAGCTGATGAATTCAATATCTCGAGTAAACAAATTTTCCTAATCTTTCTGTTCAAGCGCCATCTAC” the binding signal was 0.854 RPM ratio (pull-down/input).
With “GATGATTGTTCTCCCAGCTGATGAATTCCATAGATCGAGTAAACAAATTTTCCTAATCTTTCTGTTCAAGCGCCATCTAC” the binding signal was 0.787 RPM ratio (pull-down/input).
For “GATGATTGTTCTCCCAGCTGATGAATTAGAAGCATCGAGTAAACAAATTTTCCTAATCTTTCTGTTCAAGCGCCATCTAC”, the binding signal was 1.12 RPM ratio (pull-down/input).
For “GATGATTGTTCTCCCAGCTGATGAATTAATAGGATCGAGTAAACAAATTTTCCTAATCTTTCTGTTCAAGCGCCATCTAC”, the binding signal was 0.865 RPM ratio (pull-down/input).
In the case of “GATGATTGTTCTCCCAGCTGATGAATTAGAAACGTCGAGTAAACAAATTTTCCTAATCTTTCTGTTCAAGCGCCATCTAC”, the binding signal is reported as 0.894 RPM ratio (pull-down/input).
With “GATGATTGTTCTCCCAGCTGATGAATTCCGGTGATCGAGTAAACAAATTTTCCTAATCTTTCTGTTCAAGCGCCATCTAC” the binding signal was 0.897 RPM ratio (pull-down/input).
“GATGATTGTTCTCCCAGCTGATGAATTGTGAGTGTCGAGTAAACAAATTTTCCTAATCTTTCTGTTCAAGCGCCATCTAC” was tested, and the binding signal was 1.13 RPM ratio (pull-down/input).
“GATGATTGTTCTCCCAGCTGATGAATTCCGCTCATCGAGTAAACAAATTTTCCTAATCTTTCTGTTCAAGCGCCATCTAC” was tested, and the binding signal was 0.776 RPM ratio (pull-down/input).
For “GATGATTGTTCTCCCAGCTGATGAATTTGGCACTTCGAGTAAACAAATTTTCCTAATCTTTCTGTTCAAGCGCCATCTAC”, the binding signal was 0.874 RPM ratio (pull-down/input).
For “GATGATTGTTCTCCCAGCTGATGAATTGAGTCAATCGAGTAAACAAATTTTCCTAATCTTTCTGTTCAAGCGCCATCTAC”, the binding signal was 1.01 RPM ratio (pull-down/input).
With “GATGATTGTTCTCCCAGCTGATGAATTGTCTCTTTCGAGTAAACAAATTTTCCTAATCTTTCTGTTCAAGCGCCATCTAC” the binding signal was 1.1 RPM ratio (pull-down/input).
“GATGATTGTTCTCCCAGCTGATGAATTACAAGAGTCGAGTAAACAAATTTTCCTAATCTTTCTGTTCAAGCGCCATCTAC” was tested, and the binding signal was 1.13 RPM ratio (pull-down/input).
“GATGATTGTTCTCCCAGCTGATGAATTGATACGCTCGAGTAAACAAATTTTCCTAATCTTTCTGTTCAAGCGCCATCTAC” was tested, and the binding signal was 1.1 RPM ratio (pull-down/input).
For “GATGATTGTTCTCCCAGCTGATGAATTCCGACCTTCGAGTAAACAAATTTTCCTAATCTTTCTGTTCAAGCGCCATCTAC”, the binding signal was 0.754 RPM ratio (pull-down/input).
With “GATGATTGTTCTCCCAGCTGATGAATTAGCATCCTCGAGTAAACAAATTTTCCTAATCTTTCTGTTCAAGCGCCATCTAC” the binding signal was 1.21 RPM ratio (pull-down/input).
With “GATGATTGTTCTCCCAGCTGATGAATTTTGTTGATCGAGTAAACAAATTTTCCTAATCTTTCTGTTCAAGCGCCATCTAC” the binding signal was 2.8 RPM ratio (pull-down/input).
In the case of “GATGATTGTTCTCCCAGCTGATGAATTTAATCAATCGAGTAAACAAATTTTCCTAATCTTTCTGTTCAAGCGCCATCTAC”, the binding signal is reported as 1.04 RPM ratio (pull-down/input).
“GATGATTGTTCTCCCAGCTGATGAATTGTGCTTTTCGAGTAAACAAATTTTCCTAATCTTTCTGTTCAAGCGCCATCTAC” was tested, and the binding signal was 1.3 RPM ratio (pull-down/input).
For “GATGATTGTTCTCCCAGCTGATGAATTCAACGCTTCGAGTAAACAAATTTTCCTAATCTTTCTGTTCAAGCGCCATCTAC”, the binding signal was 0.91 RPM ratio (pull-down/input).
